Measured values reported in the supplement of paper PMC3334620.
In all, about 33,000 sequences were measured (“E-score (-0.5 to 0.5)”: median about -0.054, highest 2% from about 0.35 on). This is one part of the list.

biological target: T1, Stb5 (UniProt P38699); assay: PBM E-score (8-mer binding enrichment) (E-score (-0.5 to 0.5)); higher = stronger / more preferred TF binding; most listed sequences are background and not binding sites; conditions: protein concentration: 200 nM; construct: GST-full length
T1 sequence: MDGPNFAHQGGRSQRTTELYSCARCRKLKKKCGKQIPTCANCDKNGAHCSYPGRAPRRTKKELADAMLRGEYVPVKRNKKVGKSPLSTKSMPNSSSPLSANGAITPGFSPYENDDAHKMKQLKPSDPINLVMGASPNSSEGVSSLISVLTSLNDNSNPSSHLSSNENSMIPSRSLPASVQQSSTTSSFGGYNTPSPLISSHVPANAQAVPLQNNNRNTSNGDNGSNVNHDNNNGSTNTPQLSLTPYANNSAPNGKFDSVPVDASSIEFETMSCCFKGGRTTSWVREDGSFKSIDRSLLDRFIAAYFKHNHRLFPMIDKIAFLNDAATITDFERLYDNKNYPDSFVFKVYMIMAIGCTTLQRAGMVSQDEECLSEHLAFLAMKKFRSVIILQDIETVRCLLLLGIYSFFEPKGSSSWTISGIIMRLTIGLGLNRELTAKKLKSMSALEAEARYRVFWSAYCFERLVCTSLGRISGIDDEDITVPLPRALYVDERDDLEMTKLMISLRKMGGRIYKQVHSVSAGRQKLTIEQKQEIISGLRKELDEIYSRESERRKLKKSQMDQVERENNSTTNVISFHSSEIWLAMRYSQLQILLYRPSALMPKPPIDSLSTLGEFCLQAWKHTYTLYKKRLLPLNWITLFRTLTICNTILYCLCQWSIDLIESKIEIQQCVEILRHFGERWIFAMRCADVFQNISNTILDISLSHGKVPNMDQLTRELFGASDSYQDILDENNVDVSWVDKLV
Outline: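 For each ungapped eight-base word taken together with its reverse complement, the Universal PBM Analysis Suite assigned an E-score. Binding data came from GST-tagged yeast transcription factors, applied at about 100-200 nM, on universal all-10-mer Agilent arrays made double-stranded by primer extension. Fluorescent anti-GST marked bound protein, and scans were normalised with masliner.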

Sequence	PBM E-score
ACACAGAC	0.0166
AGGTTAAA	-0.0365
ACCATATC	-0.0669
ATATATGG	0.0193
AGTCTAAG	0.0845
CAGCTTGA	-0.173
ATTCTCAA	-0.165
GCAGTTCC	-0.136
AGTACATA	-0.113
ACTCAGTG	-0.207
CCTCGTCA	-0.192
CTAGTTGA	-0.117
CCCTGTAA	-0.0001
CTCACTAC	-0.0904
AAAAAGCT	-0.205
AATTAGAG	-0.179
CAGCGACA	-0.0488
CGCGGAAA	0.205
GAAACACA	0.102
GACCCATC	0.084
CATTTCGG	0.0963
CTGCTGCA	-0.29
CGCAGAAC	-0.0196
AGTTTGAC	-0.0987
ATCAAGAC	0.124

Sequence	PBM E-score
CCACTTCC	-0.229
ACGGATAA	0.215
AGTCCTGG	-0.204
CGCATCTC	-0.00684
AGCACTCG	-0.0832
ACCCGTCG	0.222
AGGAAAGA	-0.323
AACTTTGA	-0.158
TCCTCGCA	-0.136
CAAAGATG	-0.101
CCATCCTC	-0.197
GTCTCACA	-0.13
AGAGGGGA	-0.0635
AACCGGCG	0.313
GATTGGAA	-0.0182
GATACTAA	0.146
AAGTCATA	-0.254
ACGCAAGA	-0.134
ATGGAAAG	0.0404
GCAACCGC	0.0926
ACAGGTTG	-0.171
CCGTTTCA	0.147
CAGTGTCA	-0.176
CCACGCTA	-0.185
CTCTACGA	-0.361

Sequence	PBM E-score
AGCCTCCG	0.1
TACATAGA	-0.09
CCGGTACA	0.303
CAACAGCC	-0.12
CACGAAGA	-0.115
ATGTCATC	-0.259
ACAGGTGC	-0.0775
ACGGGCGA	0.139
ACGTAGTA	0.0861
AGTGCCAG	-0.0267
ACTGATGG	-0.0723
GACGAATA	-0.00361
CGTACAGA	-0.0892
AAGGAATG	-0.116
ATCTTCAA	-0.273
AATATGAG	-0.135
ACATTGAA	0.0392
ATCTAGCC	-0.0546
CAGACTCG	-0.388
ACACGCTC	0.058
GGGGCGCA	-0.0317
CTTGCCGA	-0.074
ATAACCTA	-0.0654
CCGCACCG	0.252
ATTAGCTC	-0.154

Sequence	PBM E-score
ACCTCAGC	-0.0343
AGGGCATG	-0.176
ACCGTGAA	0.0223
AGCCTACA	-0.157
CACTCGCC	-0.134
GGGCCTGA	-0.0768
AGATAAGG	-0.0427
GGTAGCTA	-0.181
TAGTGACA	-0.216
AGGTATAT	-0.153
ACAAGCCT	-0.238
GTCTGCAA	-0.0363
AGGGGATC	-0.0177
AGCGACCC	0.1
ATTGTCAG	-0.147
ACTGTACC	0.0518
GAGAGACA	-0.101
CGTAATCC	0.143
AGCCGCAG	0.0437
ATTTATGC	-0.0167
GACAAAAC	-0.0205
TTAAGTAA	0.0405
CTAAGGAC	0.108
AGTGTATG	-0.00857
AGGCGTCA	-0.0617

Sequence	PBM E-score
ACGCTTAG	-0.072
CAGGTTCG	-0.127
AATCGTCT	-0.204
AGACTACA	-0.273
ATTCCGAG	0.0819
AAGCATTC	-0.24
CGGGGACC	0.051
ATATTCTG	0.0727
TCATACAA	-0.0835
CCAGCTCG	-0.17
CTATTGAA	0.0691
CGGAGGCC	0.129
CACTGGCA	-0.291
AATACGTC	0.126
CTTACGCA	-0.135
CTAAGGTA	0.0211
ATTACATC	0.19
ATTAGCGA	0.14
ACTTGTCC	0.0447
GCCACGTA	-0.184
CCCGCAGC	0.229
CTATCTGC	0.0689
GGGAAATA	0.134
GGCAGTTA	0.102
CAACGGCA	0.157

Sequence	PBM E-score
GATCGCAA	-0.0786
CGCGGTCC	0.356
CATGCTTC	-0.116
AAATGAAC	-0.126
GTCATTAA	0.00252
GACAGATA	0.042
CAGCTACG	-0.118
CTACGCAA	-0.111
CCTAGCAG	-0.116
GTTGGTTA	-0.0814
AGTTTACG	-0.0295
AGTCTTAT	-0.13
CACCTGGG	-0.211
AGTGATGG	-0.177
AGCCACGA	-0.196
CCATCGAC	-0.0603
ATGGTAAC	-0.0321
TAGAAAAA	-0.116
GAACGTCC	0.038
AACTATGA	-0.193
ACTTAGTG	-0.0691
AGGCCATA	-0.0164
ATCGATAC	-0.0882
AGGATAAC	-0.21
AAGCACCG	0.457

Sequence	PBM E-score
GCGCCTGA	-0.00624
CACTGGAC	-0.0343
ATAGGGAT	-0.0448
GTCACAAC	-0.016
GCGAGGAC	-0.118
CGACGGAA	0.262
CTTGCTTC	-0.0694
AGTTCATA	-0.0563
AGAAATCA	-0.0833
CCCCTAGA	-0.312
CCACACAC	0.0986
CTCCGGAC	0.381
AACGCGCG	-0.0281
ATGGAAAT	-0.199
GGGATACA	0.0412
GGCAGCGA	-0.0943
ACCGAGGC	0.117
GGTCTCGA	-0.0531
GACGGTCA	0.11
GGCCAGAA	-0.136
CAGACGAA	-0.139
CGCTTCGA	0.00461
